# Measured values reported in publication PMC6919601, “Identification of Plasmodium dipeptidyl aminopeptidase allosteric inhibitors by high throughput screening” (PLoS ONE, 2019).
# Screen size: about 110,000 compounds; about 230 (0.21%) showed an effect of 50% or more. The list shows a part of the results.
# Biological target: DPAP1 (Plasmodium falciparum, UniProt Q8IIJ9)
# Assay: primary screen, percent inhibition; read by cleavage of a fluorogenic dipeptide substrate; higher = more effect of the substance
# Parameters: species or system P. falciparum D10 trophozoite lysates; single well
# 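Note: 30 min substrate incubation versus DMSO and 10 µM JCP410 controls.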
# Sequence of DPAP1 (Q8IIJ9 whole entry, looked up): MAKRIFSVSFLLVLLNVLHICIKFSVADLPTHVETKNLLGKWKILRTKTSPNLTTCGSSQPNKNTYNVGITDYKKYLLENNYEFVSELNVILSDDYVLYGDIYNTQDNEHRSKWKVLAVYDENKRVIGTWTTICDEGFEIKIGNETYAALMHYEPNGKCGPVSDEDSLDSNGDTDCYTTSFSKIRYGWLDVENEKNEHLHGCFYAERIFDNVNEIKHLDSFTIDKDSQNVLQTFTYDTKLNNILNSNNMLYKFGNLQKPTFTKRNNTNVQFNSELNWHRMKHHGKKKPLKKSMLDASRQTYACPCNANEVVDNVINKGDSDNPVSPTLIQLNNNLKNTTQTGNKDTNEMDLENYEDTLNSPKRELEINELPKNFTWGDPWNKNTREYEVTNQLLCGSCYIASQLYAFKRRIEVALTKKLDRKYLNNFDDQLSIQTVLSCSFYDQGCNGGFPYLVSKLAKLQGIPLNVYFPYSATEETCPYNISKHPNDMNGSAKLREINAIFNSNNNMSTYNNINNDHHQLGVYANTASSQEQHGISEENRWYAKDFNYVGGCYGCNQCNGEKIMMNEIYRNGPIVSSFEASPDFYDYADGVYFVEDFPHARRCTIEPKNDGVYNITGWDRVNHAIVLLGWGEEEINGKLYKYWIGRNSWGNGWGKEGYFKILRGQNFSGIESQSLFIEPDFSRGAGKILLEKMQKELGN
row,Structure (SMILES),% Inhibition @ 10 uM [%]
1,Cc1ccc(NCc2ccncc2)cc1,-2.15
2,Nc1cccc(C(=O)Nc2cccc(Cl)c2)c1,3.81
3,COc1ccc(C2C(C(=O)NCc3cccnc3)c3cc(OC)c(OC)cc3C(=O)N2C)cc1 (stereo not drawn),-1.2
4,CCC(C)C(=O)Nc1ccc(C(C)=O)cc1 (stereo not drawn),-1.38
5,COCC(C)NC1CCN(C(C)=O)CC1 (stereo not drawn),0.0657
6,CC(Sc1nc(-c2ccccc2)cc(C(F)(F)F)n1)C(=O)NCc1ccco1 (stereo not drawn),5.65
7,O=C(Cc1ccccc1F)Nc1nc2ccccc2s1,1.64
8,CCOc1cccc2sc(N(CCN(C)C)C(=O)c3ccc(C(C)=O)cc3)nc12,-9.48
9,COc1ccc(C(=O)/N=C(/NC(=O)c2ccc(OC)cc2)Nc2nc3ccccc3s2)cc1,0.146
10,COc1ccc(-c2nc(N3CCC(C)CC3)nc3nn4c(C)cc(C)nc4c23)cc1,4.02
11,Cc1[nH]c(SCC(=O)Nc2nc3c(s2)CCCC3)nc1Cc1ccc(O)cc1,4.24
12,Cn1cnc2c(NCc3ccco3)ncnc21,0.221
13,CCOC(=O)c1c(-c2ccc(Cl)cc2)nn2c1NCN(Cc1cc(OC)ccc1OC)C2,-1.08
14,CCOc1c(Cl)cc(C(=O)Nc2cccc(C(=O)O)c2)cc1Cl,5.44
15,COc1ccc(CCNc2oc(COc3ccccc3)nc2C#N)cc1,-5.63
16,CC(=O)c1cccc(NC(=O)c2c(-c3ccccc3Cl)noc2C)c1,-7
17,Brc1ccc(CN2CCN(c3ccccn3)CC2)s1,-8.39
18,O=C1CC(=O)N(c2ccc(F)cc2)C(=O)N1,-2.18
19,CC(C)(C)c1ccc(OCCCN2CCOCC2)cc1,1.35
20,O=S(=O)(c1ccc(-c2csc(Nc3ccc(Cl)cc3)n2)cc1)N1CCCCC1,-4.46
21,O=C(c1cnn(-c2ccccc2)c1-n1cccc1)N1CCN(c2ccccn2)CC1,6.46
22,CCCCCC1CCC(c2ccc(-c3nc(-c4ccc(C5CCC(CCC)CC5)cc4)no3)cc2)CC1 (stereo not drawn),-5.96
23,Cc1nn(-c2cc(Oc3ccccc3)nc(-c3ccccc3)n2)c(N)c1C#N,0.851
24,CCOC(=O)c1c(C)[nH]c(C(=O)CSc2ccccc2)c1C,-9.24
25,O=C(CCc1cn(Cc2ccc(Cl)cc2)c2ccccc12)NCCCN1CCOCC1,-4.34
26,CCOC(=O)C1CCCCN1C1CCN(Cc2ccccc2)CC1 (stereo not drawn),3.19

row,Structure (SMILES),% Inhibition @ 10 uM [%]
1,CC(C)CCNC(=O)C(=O)NCc1ccc2c(c1)OCO2,-5.01
2,Cc1cc(C(=O)NCCCSC2CCCCC2)n(-c2ccccc2)n1,3.19
3,CC1=C(C(=O)Nc2cccc(C)n2)C(c2ccccc2C(F)(F)F)C2=C(O)CC(C)(C)CC2=N1 (stereo not drawn),-6.6
4,CC(C)CCNC(=O)C(NS(=O)(=O)c1cccc2nsnc12)C(C)C (stereo not drawn),-0.685
5,COc1ccc(Cl)cc1NC(=O)CN(C)S(=O)(=O)c1ccc(OC)c(OC)c1,-2.29
6,Fc1ccc(CSc2nc(NCc3ccco3)c3ccccc3n2)cc1,-7.41
7,O=C(NCC1CCCO1)c1ccc(Br)cc1 (stereo not drawn),-1.41
8,Cc1cc(Cl)c(OCCOCCN2CCNCC2)c(Cl)c1,-12.3
9,COc1ccccc1N(CC(=O)NCc1ccc(Cl)cc1Cl)S(C)(=O)=O,-1.74
10,COc1ccc(C2C(C(=O)Nc3ccc(Cl)cc3)=C(C)Nc3nc(CCCO)nn32)c(OC)c1 (stereo not drawn),0.528
11,COc1cc(/C=C2/C=C(c3ccc4ccccc4c3)OC2=O)ccc1O,7.87
12,Cc1ccc(-c2csc(Nc3ccc(Br)cc3)n2)cc1,-0.771
13,CC1=C(C(=O)Nc2ccccc2C)C(c2ccc(Br)cc2)C2=C(O)CCCC2=N1 (stereo not drawn),2.38
14,O=C(O)c1ccc(-c2ccc(Cl)cc2Cl)o1,23.5
15,Cc1ccc(S(=O)(=O)N2CCOCC2)c(C)c1N1CCCC1=O,-1.96
16,CCOC(=O)N1CCN(C(=O)CCSc2ccccc2)CC1,-7.14
17,COc1cccc(Nc2nc(NCC3CCCO3)c3ccccc3n2)c1 (stereo not drawn),-4.49
18,O=C(Nc1ccc(S(=O)(=O)N2CCCCCC2)cc1)c1ccccc1Br,-5.15
19,O=C1c2ccccc2C(=O)N1Cc1nc2c3c4c(sc3ncn2n1)CCCC4,4.57
20,CCCOc1ccc(Cn2c(=O)oc3ccc(C)cc32)cc1OC,-0.759
21,C(=C1/NC2(CCCCC2)Cc2ccccc21)/c1ccc2ccccc2n1,-1.32
22,COCC(C)NC(=O)c1cc2c(=O)n3cccc(C)c3nc2n1C (stereo not drawn),1.68
23,Cc1cc(C)cc(OCc2ccc(C(=O)O)o2)c1,-4.05
24,CCOC(=O)N1CCC(/N=c2\c(O)c(O)\c2=N/CCN2CCN(Cc3ccccc3)CC2)CC1,-3.21
25,COc1cccc(OCC(O)CN2CCC(CN3C(=O)c4cccc5cccc(c45)C3=O)CC2)c1 (stereo not drawn),4.47
